The other results are listed elsewhere or left out. Sequences were assembled here from the parent chain. Inactive controls read about 0.05.
B1: TEV protease; numbered along this chain (parent)
chain: MGESLFKGPRDYNPISSSICHLTNESDGHTTSLYGIGFGPFIITNKHLFRRNNGTLVVQSLHGVFKVKDTTTLQQHLVDGRDMIIIRMPKDFPPFPQKLKFREPQREERICLVTTNFQTKSMSSMVSDTSCTFPSGDGIFWKHWIQTKDGQCGSPLVSTRDGFIVGIHSASNFTNTNNYFTSVPKNFMELLTNQEAQQWVSGWRLNADSVLWGGHKVFMVKPEEPFQPVKEATQL

Variants of: B1
Test: raw area under fraction-flipped curve 0-4 h after induction (AUC4h, not background-subtracted), DNA-recorder readout of cleavage of the substrate (dimensionless); higher = more cleavage of the substrate by the protease variant
Conditions: temperature: 34 °C; time window: 0-4 h after rhamnose induction
Procedure: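 In vivo DNA recorder in E. coli TOP10(DE3) ΔrhaA at 34 °C. Each TEVp single-site mutant (parent TEVp 0) is paired with a single-site variant of the 7-mer TEVs (canonical ENLYFQ|S). The substrate sits between flexible linkers in a Bxb1-sfGFP-TEVs-SsrA fusion, so cleavage stabilises Bxb1 and speeds flipping of a recombination array, read by NGS. The value is the raw area under the fraction-flipped curve over 0-4 h after rhamnose induction (AUC4h), with ≥20 reads per time point. It is not background-subtracted; inactive controls average about 0.047.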
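Also: Bxb1 expression induced with 0.2% (w/v) L-rhamnose at OD600 near 0.5, cultures sampled hourly, flipped fraction per protease–substrate barcode pair counted by paired-end Illumina sequencing.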

| Variant | area with substrate ENLAFQS | area with substrate ENLCFQS | area with substrate ENLDFQS | area with substrate ENLEFQS | area with substrate ENLFFQS | area with substrate ENLGFQS | area with substrate ENLHFQS | area with substrate ENLIFQS | area with substrate ENLKFQS | area with substrate ENLLFQS | area with substrate ENLMFQS | area with substrate ENLNFQS | area with substrate ENLPFQS | area with substrate ENLQFQS | area with substrate ENLRFQS | area with substrate ENLSFQS | area with substrate ENLVFQS | area with substrate ENLWFQS | area with substrate ENLTFQS |
| --- | --- | --- | --- | --- | --- | --- | --- | --- | --- | --- | --- | --- | --- | --- | --- | --- | --- | --- | --- |
| K142L | 0.0774 | 0.0689 | 0.0588 | 0.0729 | 0.0991 | 0.0668 | 0.0761 | 0.0726 | 0.0727 | 0.0776 | 0.0649 | 0.0809 | 0.0648 | 0.0816 | 0.0755 | 0.0627 | 0.0667 | 0.0618 | – |
| E195K | 0.0681 | 0.071 | 0.0656 | 0.0527 | 0.0774 | 0.0567 | 0.0692 | 0.0767 | 0.101 | 0.0545 | 0.0676 | 0.07 | 0.0706 | – | 0.0785 | 0.0612 | 0.0955 | – | – |
| P155K | 0.0656 | 0.0492 | 0.0539 | 0.0549 | 0.0549 | – | 0.0694 | 0.0691 | 0.0519 | – | 0.0855 | 0.0423 | 0.0545 | 0.0618 | 0.062 | – | – | – | – |
| C152P | 0.0695 | 0.0665 | 0.0548 | 0.0674 | 0.0644 | 0.048 | 0.0562 | – | 0.0604 | – | 0.0563 | – | – | 0.0487 | – | 0.0571 | 0.0555 | – | – |
| T176K | 0.0572 | – | 0.0629 | – | 0.0677 | 0.0727 | 0.0603 | 0.0652 | 0.0547 | – | 0.0747 | – | 0.0611 | 0.0745 | 0.0712 | 0.0564 | – | 0.0678 | – |
| V157D | 0.0369 | 0.0477 | 0.0505 | – | 0.0635 | 0.053 | 0.0445 | – | 0.0478 | 0.0606 | – | 0.0371 | – | 0.0513 | 0.0428 | 0.0428 | 0.0461 | 0.0463 | 0.0616 |
| V157L | 0.0651 | 0.059 | 0.053 | – | 0.0799 | 0.0526 | 0.0658 | 0.0736 | 0.0715 | 0.0661 | 0.0733 | 0.06 | – | 0.0574 | 0.0686 | 0.0508 | 0.0752 | – | – |
| T147Q | 0.0574 | 0.0629 | 0.066 | 0.0644 | 0.0607 | 0.0715 | 0.0467 | 0.0648 | – | – | 0.072 | 0.0616 | 0.0652 | 0.0571 | 0.0635 | 0.0621 | 0.0746 | 0.0622 | 0.06 |
| V217C | 0.0248 | 0.0417 | 0.0627 | 0.064 | 0.0826 | 0.0607 | 0.0709 | 0.0922 | 0.0689 | – | 0.0796 | 0.0681 | 0.0536 | 0.0651 | 0.0868 | 0.0652 | 0.079 | 0.0527 | 0.0738 |
| V217P | 0.0609 | 0.0598 | 0.0632 | 0.0636 | 0.061 | – | 0.0617 | – | 0.0604 | – | – | 0.0651 | 0.0623 | – | – | 0.0777 | 0.0507 | – | – |
| L191Y | 0.0436 | 0.0482 | 0.061 | 0.0642 | 0.0629 | – | – | 0.066 | 0.0517 | – | – | 0.0669 | 0.0527 | – | 0.0195 | – | – | – | – |
| L191A | 0.0484 | – | – | 0.0592 | 0.0471 | – | – | 0.0705 | 0.0641 | 0.0508 | 0.0548 | 0.0546 | 0.0409 | – | – | 0.0669 | – | 0.0399 | – |
| L191F | 0.0707 | – | 0.0627 | 0.0649 | 0.0851 | – | 0.0627 | 0.0685 | 0.0828 | – | – | 0.0602 | 0.0625 | 0.0577 | 0.066 | 0.0645 | 0.0881 | 0.0642 | – |
| Q194F | 0.0649 | 0.0855 | – | – | 0.066 | – | 0.0668 | – | 0.0644 | – | – | 0.0506 | 0.0569 | – | 0.062 | 0.056 | – | – | – |
| G202Q | 0.0449 | – | 0.0644 | 0.051 | 0.0323 | – | 0.0719 | – | 0.0675 | 0.0754 | 0.0743 | 0.0539 | 0.0556 | 0.059 | 0.0675 | 0.0515 | 0.065 | – | 0.097 |
| W203N | 0.067 | – | 0.0568 | 0.0563 | 0.0549 | – | 0.0674 | – | 0.0657 | – | 0.0654 | 0.0617 | 0.0507 | 0.0451 | 0.0554 | 0.0404 | – | 0.0493 | – |
| W203G | 0.0617 | 0.065 | 0.0611 | – | 0.0885 | 0.061 | – | 0.0409 | 0.0635 | 0.05 | 0.0497 | 0.07 | – | 0.0505 | – | 0.0661 | 0.0677 | 0.0558 | 0.0664 |
| F180N | 0.0564 | 0.0399 | 0.0582 | 0.0687 | 0.0613 | – | 0.0514 | 0.0583 | 0.0426 | 0.0602 | – | – | – | – | – | 0.103 | – | – | 0.0672 |
| L156E | 0.0306 | 0.0488 | 0.0534 | 0.055 | 0.0493 | – | 0.0224 | 0.0375 | 0.0581 | 0.0455 | – | 0.0508 | 0.0579 | 0.0729 | – | 0.065 | 0.0585 | 0.0532 | – |
| L156H | 0.0517 | 0.0634 | 0.0561 | 0.0608 | 0.0879 | – | 0.0555 | 0.0632 | 0.0607 | 0.0477 | 0.0613 | 0.058 | 0.0564 | 0.0344 | 0.0502 | 0.0534 | 0.0572 | – | 0.0773 |
| S169M | 0.0693 | 0.0605 | 0.0621 | 0.0645 | 0.0684 | 0.0924 | 0.0653 | 0.0629 | 0.0706 | 0.0708 | – | 0.0689 | 0.056 | 0.0571 | 0.0678 | 0.0634 | 0.0623 | – | 0.0642 |
| W199E | 0.0637 | 0.0598 | 0.0639 | 0.0629 | 0.0612 | 0.0609 | 0.058 | 0.0342 | 0.0633 | 0.0634 | 0.0595 | 0.074 | 0.0639 | 0.059 | – | 0.05 | 0.0771 | 0.0869 | 0.0566 |
| W199N | 0.0636 | – | 0.0673 | 0.0625 | 0.0677 | 0.0691 | 0.0492 | 0.0388 | – | 0.0972 | 0.0692 | 0.0619 | – | 0.0727 | – | 0.0713 | 0.054 | 0.0494 | – |
| Q151E | 0.0698 | 0.0742 | 0.0594 | 0.0672 | 0.075 | 0.0591 | 0.0696 | – | 0.074 | 0.0702 | 0.0589 | 0.0656 | 0.0628 | – | 0.0771 | 0.0565 | – | – | 0.0647 |
| V183H | 0.0916 | 0.0435 | 0.0564 | 0.0522 | 0.0695 | 0.058 | 0.0659 | – | – | 0.0522 | – | 0.0685 | 0.0373 | – | 0.0562 | 0.0476 | – | 0.0388 | 0.0627 |
